Drawing on the RNAGym collection of RNA variant scans (doi:10.7554/elife.90254), this text covers self-cleavage for 167 variants.

Read counts are not given, so values of variants with three or more changes are uncertain.

The labels stand for the following.
B1: LINE1-mini (parent)
chain: GGCAGAGCUCAACACAGCGUGGCAAAGUGGCUGUGGCUAGACUGCC

In the data set the parent is B1. Nature of the data set: self-cleavage, relative activity (ratio to wild type); higher = more cleavage; in vitro, sequencing; the parent is a self-cleaving ribozyme.
Take C8U C18A U32G A39U: the self-cleavage worked out at 0.02.
For the variant C8U C15A G19C C23A A41C, the self-cleavage came to 0.02.
As to C8U G19C A24U G27U, the self-cleavage is 0.15.
As to U9A A14C A26U, the self-cleavage was 0.04.
As for U9A G19A G22A A26U G30C C31U U38A, the self-cleavage was found to be 0.02.
Turning to C8U C10A A24G C31U, the self-cleavage is 0.06.
Consider U9A A16U U20G G35U U38A, for which the self-cleavage was determined as 0.12.
On to U9A A12U C42G C45A, for which the self-cleavage worked out at 0.12.
Next, C8U U43A G44A: 0.69; U9A C15G U28C C37G: 0.02; U9A A11U U34A: 0.02.
To U9A G19C U28C belongs 0.04.
For the variant C8U C23G G27C U28A A39C C45U, the self-cleavage came to 0.03.
For the variant U9A A39U G44A, the self-cleavage came to 0.11.
For the variant C8U U20A U28G, the self-cleavage amounted to 0.16.
Regarding U9A A11G A16C G35C U43A G44C, the self-cleavage was 0.
C8U A14C G22C: the self-cleavage turned out to be 0.04.
Next, U9A G29C C46G: 0.04; C8U U20G G29A: 0.44; C8U C10G A12C: 0.
Take C8U G19A G21A C45A: the self-cleavage turned out to be 0.34.
In the case of C8U A12C C15U A16U U20C G33C G35A C37A, the self-cleavage was found to be 0.01.
In the case of C8U A14C C23A, the self-cleavage came out at 0.04.
U9A C13G C45A: the self-cleavage is 0.24.
As for U9A G35U C46U, the self-cleavage came to 0.15.
Regarding C8U G33C C42A, the self-cleavage stood at 0.08.
As to C8U C15U G29A U32G G33C G40A, the self-cleavage is 0.27.
U9A C23A G30A G33U A39C: the self-cleavage came out at 0.
For U9A C10A C45G, the self-cleavage stood at 0.
As to U9A A24U A26C G27C C31G, the self-cleavage was determined as 0.
For the variant C8U C13U C37G C46U, the self-cleavage stood at 0.26.
In the case of C8U U9C U20G C31G G33U U34C, the self-cleavage turned out to be 0.02.
With C8U U9A G21C G27U, the self-cleavage is 0.08.
To U9A A11U U20G C23G U32C G33C C46G belongs 0; to C8U C37A C42A, 0.04; to C8U G17U U20A A25G C31U G40A A41C, 0.07.
In the case of C8U A14G G19A A39G, the self-cleavage turned out to be 0.02.
On to C8U U28A G30U, for which the self-cleavage came out at 0.12.
Turning to C8G U9G G40U, the self-cleavage worked out at 0.07.
In the case of U9A U28C G29C C42A, the self-cleavage turned out to be 0.07.
Next, C8U U34A G44A: 0.12; U9A A16G G22U: 0.04.
For the variant C8U U9A G21C U28G A39U, the self-cleavage was 0.02.
As to C8U G19C U32C G33A G35A, the self-cleavage was 0.06.
To C8U C23G A39U G40C belongs 0.09; to C8U G19A G36U, 0.06.
To U9A G19U U20C belongs 0.04; to U9A A39U C42G, 0.03.
In the case of C8U A16U A24U C37A, the self-cleavage is 0.01.
As to U9A C13U A14C, the self-cleavage was 0.18.
Next, C8U C10G C18A C23U: 0.01.
Turning to C8U G35A G40A, the self-cleavage is 0.
For the variant U9A C10G C23U G27U, the self-cleavage was 0.02.
As for C8U G21C C37G, the self-cleavage is 0.03.
On to U9A G22U U28C U32A, for which the self-cleavage is 0.16.
On to U9A C23A C45A, for which the self-cleavage was determined as 0.18.
As for C8G U9C G33A, the self-cleavage was found to be 0.01.
To C8U G21C C31A belongs 0.16; to U9A G21A G27C U34G G44U, 0.24; to C8U A11C A12C, 0.03.
Next, U9A C18U G36U: 0.05; U9A C18U G36C: 0.03.
For U9A C15G C37G, the self-cleavage was 0.07.
With C8U A14C G27A, the self-cleavage was 0.07.
Next, U9A A12G G22U C37G: 0.01; C8U A26G G27U G44C: 0.03.
To U9A C10G G19A A24G U32C G35U belongs 0.02; to C8U U20A G35C G36U, 0.23.
Turning to U9A A12U A16U G19A C31A G36A, the self-cleavage amounted to 0.
On to C8U A14U U20G, for which the self-cleavage worked out at 0.08.
Turning to C8U A12U G27U G29A, the self-cleavage turned out to be 0.04.
For the variant C8U A12C A14C A26C G29C, the self-cleavage is 0.09.
On to C8U C23U G30A, for which the self-cleavage turned out to be 0.72.
On to C8U U9C G40U, for which the self-cleavage stood at 0.03.
For C8U A14U G44U, the self-cleavage came out at 0.03.
With C8U A16G A26U G29U A39C G44A, the self-cleavage turned out to be 0.2.
In the case of C8U G17C U20G G21A G30A, the self-cleavage turned out to be 0.13.
As to C8U U9C U28C, the self-cleavage amounted to 0.23.
Turning to U9A C15A A26U, the self-cleavage turned out to be 0.2.
For C8U C15G G21U, the self-cleavage was determined as 0.14.
As for U9A A12C C13U A14U G17C U28A C46U, the self-cleavage stood at 0.02.
For the variant C8U U9C A14C G44U, the self-cleavage is 0.19.
As for C8U G21U A24C C31G, the self-cleavage stood at 0.13.
Take C8U C23U C45U: the self-cleavage was determined as 0.27.
To C8G U9G C23U U28C belongs 0.06; to C8U U34A C46A, 0.15; to C8U U20A A24G U32A U34C C45U, 0.04.
Regarding C8U G35C C37G, the self-cleavage came to 0.13.
Take C8U G35A U38A: the self-cleavage came to 0.09.
As for C8U A11C G30A, the self-cleavage was determined as 0.03.
For U9A G36U A41U, the self-cleavage is 0.02.
As for C8U C13U C15A A16G G22U G29A G30A U32C G36C, the self-cleavage stood at 0.13.
Consider C8U G19A G22C G40U, for which the self-cleavage came out at 0.06.
In the case of C8U G22C C23G G36C A39C, the self-cleavage is 0.03.
To C8U A26C C46A belongs 1.28.
For U9A C15G A16C G21A A25U, the self-cleavage was 0.04.
Next, C8U A11U G19U: 0.05.
On to C8U C13A A16C G17C G21A A26G C37U, for which the self-cleavage stood at 0.15.
On to C8U G19U G36C, for which the self-cleavage was 0.11.
For the variant C8U G17A G29U, the self-cleavage worked out at 0.36.
To U9A A14C C15U C18A A24G belongs 0; to U9A G19A C46A, 0.17; to U9A G29C G36U, 0.01.
In the case of U9A G27C U38G G40U, the self-cleavage is 0.12.
Next, C8U G33C A39U: 0.15; U9A C15A U32G C46G: 0.36; U9A C10A C13G U20A G22U U34C C42A: 0.02.
Regarding C8G U32C U43C, the self-cleavage is 0.23.
On to U9A U20C C37U, for which the self-cleavage was 0.11.
In the case of U9A C15G U20G G35U A39U, the self-cleavage was 0.12.
Next, C8U A14U C18A U34A G36A U38C: 0.04.
With C8U U34G G35C, the self-cleavage was 0.06.
As for C8U A16G U20G C23A U34A, the self-cleavage turned out to be 0.02.
C8U G33A C45A: the self-cleavage was determined as 0.18.
Regarding U9A A12G C31A U32C, the self-cleavage is 0.19.
Consider U9A G27U G35C A39G, for which the self-cleavage was 0.02.
U9A A26U G36A: the self-cleavage was found to be 0.16.
Consider U9A C13G G27A U28C G29U C37U, for which the self-cleavage is 0.16.
To U9A C15G U28G G33A C37A A39U U43G belongs 0.08; to U9A C10A G21C, 0.05.
Consider U9A A25C G40C, for which the self-cleavage came out at 0.08.
On to C8G U32A G33A, for which the self-cleavage was 0.01.
Take U9A G19U C37A A39C: the self-cleavage worked out at 0.07.
U9A U28A G30A C31U G33A G36A: the self-cleavage was found to be 0.21.
Next, C8U C10A C13U A26G A41U: 0.01.
To C8U U32A U34C G35C belongs 0.15; to U9A U20A C42U, 0.59.
Regarding C8U G35U G40C, the self-cleavage was found to be 0.07.
Consider C8U G35U G40U, for which the self-cleavage was 0.14.
On to C8U A12C A25C G29U, for which the self-cleavage was found to be 0.04.
With U9A A12G G19U U28G G33U, the self-cleavage worked out at 0.08.
Take U9A G22C A25G: the self-cleavage is 0.03.
For the variant U9A A12U G27A C31G C37A G44A C45G, the self-cleavage turned out to be 0.02.
For the variant C8U A14G U20C U43A G44C, the self-cleavage turned out to be 0.03.
For the variant U9A C13U G22A, the self-cleavage was determined as 0.04.
As to U9A C13U G44C, the self-cleavage came out at 0.28.
Turning to U9A U20A A39G, the self-cleavage came to 0.
To U9A G21C C31A belongs 0.02.
As to C8U C23A G29A, the self-cleavage turned out to be 0.06.
U9A C23A A25G: the self-cleavage is 0.27.
Regarding C8U A24G U34A, the self-cleavage is 0.11.
In the case of C8U G17C A26U, the self-cleavage was determined as 0.01.
U9A A25U U32C U38C: the self-cleavage stood at 0.03.
For C8U G17U G40U, the self-cleavage was 0.06.
Next, U9A C18A C45G: 0.15.
To U9A C15U U38G belongs 0.16; to U9A U20C A24U A41G C46A, 0.04.
To C8U G19C U20G belongs 0.09; to U9A A26U U34A A39G, 0.1.
Turning to C8U C13G C18A G21C C23U G27U, the self-cleavage worked out at 0.04.
U9A G40U U43C: the self-cleavage was 0.05.
On to U9A C10A C31U, for which the self-cleavage came to 0.05.
Next, C8U U9G G19U U20C C23U U34A: 0.04.
As to C8U U32A A41C G44C, the self-cleavage was 0.1.
Turning to C8U A14G C15U G22U G33U, the self-cleavage is 0.29.
Turning to U9A C18U G21A C37U, the self-cleavage came out at 0.02.
In the case of C8U A25U C46G, the self-cleavage is 0.24.
On to C8U G17C C46G, for which the self-cleavage amounted to 0.37.
To C8U C18G G21U belongs 0.07; to U9A C10U A24U G30U G44U, 0.06.
Turning to C8U G33C C37U, the self-cleavage stood at 0.04.
U9A G22C G44A: the self-cleavage is 0.05.
To C8G U9G C18U C42A belongs 0.04.
To C8U A24U U38G C46U belongs 0.02.
Take U9A G21C U28C A41C C46U: the self-cleavage came out at 0.03.
As for C8U G30C U32A, the self-cleavage worked out at 0.06.
Regarding C8U C10U C46G, the self-cleavage is 0.02.
